The values below come from US20250177530A1, “MOLECULES THAT BIND TO ENPP1 POLYPEPTIDES” (UNIVERSITY OF PITTSBURGH - OF THE COMMONWEALTH SYSTEM OF …, priority 2022, published 2025).

In series [1] the target is T1, recombinant ENPP1 (Homo sapiens, UniProt P22413).
T1 construct: designed to express the ENPP1 extracellular domain fused with a His6-FLAG tag; His6-FLAG; made in house; host or cells: Expi293 cells (transient, pIW-Zeocin vector), purified on Nickel resin
T1 sequence (P22413 98-925 limits assumed): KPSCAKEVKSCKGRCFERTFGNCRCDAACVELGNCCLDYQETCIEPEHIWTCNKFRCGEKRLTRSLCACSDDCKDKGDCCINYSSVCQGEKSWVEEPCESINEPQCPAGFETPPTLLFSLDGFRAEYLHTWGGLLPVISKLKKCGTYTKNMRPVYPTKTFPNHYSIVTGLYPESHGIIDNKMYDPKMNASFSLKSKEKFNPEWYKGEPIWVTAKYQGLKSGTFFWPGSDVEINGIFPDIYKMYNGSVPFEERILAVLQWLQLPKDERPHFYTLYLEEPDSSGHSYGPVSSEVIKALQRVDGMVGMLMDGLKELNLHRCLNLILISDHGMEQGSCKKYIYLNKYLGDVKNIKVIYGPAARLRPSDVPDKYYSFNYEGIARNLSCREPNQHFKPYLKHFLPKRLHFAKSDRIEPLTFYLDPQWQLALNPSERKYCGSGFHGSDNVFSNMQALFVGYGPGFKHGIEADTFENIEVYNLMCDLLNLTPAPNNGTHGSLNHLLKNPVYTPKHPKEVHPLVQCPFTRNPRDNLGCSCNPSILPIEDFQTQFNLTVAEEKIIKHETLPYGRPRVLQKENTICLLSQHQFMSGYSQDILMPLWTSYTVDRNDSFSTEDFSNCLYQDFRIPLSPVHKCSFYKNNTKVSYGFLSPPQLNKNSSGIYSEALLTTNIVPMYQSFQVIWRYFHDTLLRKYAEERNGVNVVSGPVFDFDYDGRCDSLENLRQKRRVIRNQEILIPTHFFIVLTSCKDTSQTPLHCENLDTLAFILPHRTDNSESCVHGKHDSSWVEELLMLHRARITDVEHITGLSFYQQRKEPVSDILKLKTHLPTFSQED
As to the kind of experiment: BLItz biolayer interferometry affinity/avidity. It is filed as binding. The conditions noted are these: curve fitting. On the procedure: The affinity and avidity of the anti-hENPP1 antibody were detected by biolayer interferometry BLItz (ForteBio, Menlo Park, CA, USA). Briefly, DPBS was used to establish a baseline for 30 seconds, and streptavidin biosensor (ForteBio) was coated with 16.7 μg/mL recombinant ENPP1-Biotin for 2 minutes. Different doses of IgG1 and Fab were used for association and monitored for 2 minutes to measure the avidity and affinity. Antigen-coated biosensors with PBS served as a reference control. The dissociation was monitored in DPBS for 4 minutes.

Series [2] has as its target BSA (Bos taurus, UniProt P02769). As to the kind of experiment: ELISA binding to BSA (specificity). The procedure:
The binding and specificity of Fab, scFv, and IgG1 to ENPP1 were analyzed by ELISA. Briefly, ENPP1-His protein was coated at 50 ng/well at 4° C. overnight and blocked with 5% milk for 2 hours at room temperature. After three times washing with PBST, they were incubated with 3-fold serially diluted Fab, scFv, or IgG1 for 1 hour at 37° C. For Fab and scFv detection via the FLAG tag present at the C-terminus, further incubation was performed with anti-FLAG M2-peroxidase (HRP) antibody (A8592, Sigma-Aldrich, St. Louis, MO, USA) for another 1 hour. For the IgG1, HRP-conjugated goat anti-human IgG1 Fc (Sigma-Aldrich, St. Louis, MO, USA) was used for detection.

Series [3] has as its system HepG2 cells. As to the kind of experiment: Flow cytometry cell surface binding. It is filed as cell-based. The conditions noted are these: 100 nM, HepG2 cells (low ENPP1 expression). On the procedure: (§1) To detect the cells surface expression levels of ENPP1 protein, the cells were stained with anti-ENPP1/PC1 antibody (Abcam, Cambridge, UK) for 30 minutes at 4° C. and then stained with Alexa Fluor 488-conjugated goat anti-rabbit IgG H&L (Abcam) for 30 minutes at 4° C. To determine the cell surface binding of the isolated antibodies, cells were incubated with hlgG1 17, hlgG1 3G12, scFv 17, or scFv 3G12 for 1 hour at 4° C. and then stained with PE-conjugated goat anti-human IgG (Sigma-Aldrich) or APC-conjugated anti-FLAG (Miltenyi Biotec) for 30 minutes at 4° C. For anti-ENPP1-CAR expression on T cells, CD4^+ T and CD8^+ T cells were gated by using PerCP conjugated anti-human CD3 antibody (Biolegend, San Diego, CA, USA) and followed by APC conjugated anti-human CD4 antibody (Biolegend) and FITC conjugated anti-human CD8 antibody (Biolegend) separately, and CAR expression was examined by using biotinylated ENPP1 followed by PE Streptavidin (Biolegend).

For series [4], the system named is 293T cells. The series can be described thus: Flow cytometry cell surface binding. The format is cell-based. The following applies: 100 nM, ENPP1 negative 293T cells. The procedure: as §1
In series [5] the test system is 293T-ENPP1 cells. As to the kind of experiment: Flow cytometry cell surface binding. The format is cell-based. The following applies: 100 nM, ENPP1 positive 293T-ENPP1 cells. The procedure:
as §1

In series [6] the test system is 293T-ENPP1 cells. As to the kind of experiment: IgG1 internalization by flow cytometry. The format is cell-based. The following applies: pHrodo Deep Red labeled IgG1, 37° C., 2 hours. The procedure:
FIGS. 7A-7B. Internalization of IgG1 by ENPP1 positive and negative cell lines.
To access the cell cytotoxicity of anti-ENPP1 IgG1-MMAE ADC, the IgG1 internalization between 293T cells and 293T-ENPP1 cells was investigated by flow cytometry. […] Next, the ADC killing effects with HepG2 cancer cells, which have a lower expression level of ENPP1, were tested. […] When compared with the 293T cell line, the HepG2 was more sensitive to MMAE.

Series [7] is described as follows: Size-exclusion chromatography (SEC) aggregation evaluation. It is filed as physicochemical. The following applies: Superdex 200 Increase 10/300 GL, DPBS. On the procedure:
The purity and structure of the antibodies were analyzed by Superdex 200 Increase 10/300 GL chromatography (GE Healthcare, Chicago, IL, USA). Briefly, the proteins ferritin, aldolase, conalbumin, ovalbumin, carbonic anhydrase, and ribonuclease were used for calibration. A 500 μL sample mix containing the above proteins was loaded into the column and separated by the ÄKTA explorer machine (GE Healthcare, Chicago, IL, USA). For the antibody analysis, 100 μL of filtered antibodies (2 mg/mL) in 1×DPBS (Dulbecco's phosphate-buffered saline, Gibco, Waltham, MA, USA) was analyzed. Antibodies were eluted by DPBS buffer at a flow rate of 0.5 mL/minute.

Series [8] concerns 293T-ENPP1 cells. The series can be described thus: ADCC reporter bioassay. It is filed as cell-based. The conditions noted are these: serial diluted IgG1, 293T-ENPP1 target cells. The procedure:
The cell-killing activity of anti-ENPP1 CAR^+ T cells and BiTEs were measured by LDH-Glo cytotoxicity assay kit (Promega, Madison, WI, USA). For the cell-killing activity of anti-ENPP1 CAR^+ T cells, control T cells or CAR^+ T cells as effector cells were incubated with 293T, 293T-ENPP1, and HepG2 target cells (5×10^3 cells/well in 96-well plate) separately at indicated E:T ratio for 24 hours at 37° C. For the cell-killing activity of BiTEs, target cells (1×10^4 cells/well) were mixed with serially diluted BiTEs in 50 μL of growth medium, and […] activated T cells were added at the ET ratio 10:1 and cultured for 24 hours at 37° C. in 5% CO2 humidified atmosphere. Controls for the calculation of percentage cytotoxicity were performed according to the manufacturer's instructions. The calculation of relative % cytotoxicity as follows: relative % cytotoxicity=100×(Experimental LDH release-medium background)/(target and effector maximum LDH release control-medium background). For the cell-killing activity of ADC, 293T, 293T-ENPP1, and HepG2 cells were seeded at 2000 cells/well in 96-well white plate and incubated overnight at 37° C. in 5% CO2. […] The calculation of % Relative cell viability was as follows: % Relative cell viability=100×(Experimental luminescence values-medium Background)/(Control luminescence values-medium Background). […]

BSA, sequence (P02769 25-607): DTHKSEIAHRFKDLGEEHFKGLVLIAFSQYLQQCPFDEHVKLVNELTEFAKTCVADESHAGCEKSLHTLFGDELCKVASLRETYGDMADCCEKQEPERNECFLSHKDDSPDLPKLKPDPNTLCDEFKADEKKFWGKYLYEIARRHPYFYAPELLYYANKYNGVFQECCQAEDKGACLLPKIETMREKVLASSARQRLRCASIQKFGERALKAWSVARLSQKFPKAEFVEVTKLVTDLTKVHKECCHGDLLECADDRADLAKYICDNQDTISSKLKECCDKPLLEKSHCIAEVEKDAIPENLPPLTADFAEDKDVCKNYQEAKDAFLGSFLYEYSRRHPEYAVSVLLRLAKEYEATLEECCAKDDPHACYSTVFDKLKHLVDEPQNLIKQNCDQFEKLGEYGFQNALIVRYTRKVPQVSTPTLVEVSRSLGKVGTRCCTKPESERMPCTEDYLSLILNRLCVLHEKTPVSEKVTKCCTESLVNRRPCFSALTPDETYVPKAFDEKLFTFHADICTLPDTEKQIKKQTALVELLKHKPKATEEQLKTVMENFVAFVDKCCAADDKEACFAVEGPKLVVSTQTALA

B1: Fab 17: Anti-ENPP1 human Fab; light chain SEQ ID NO:286, heavy chain SEQ ID NO:287 (antibody)
heavy: QVQLVESGGGLVKPGGSLRLSCAASGFTFSDYYMSWIRQAPGKGLEWVSYISSSGSTIYYADSVKGRFTISRDNAKNSLYLQMNSLRAEDTAVYYCAREVYYYDSSGYYTYYFDYWGQGTLVTVSSASTKGPSVFPLAPSSKSTSGGTAALGCLVKDYFPEPVTVSWNSGALTSGVHTFPAVLQSSGLYSLSSVVTVPSSSLGTQTYICNVNHKPSNTKVDKKVEPKSCDKT
light: DIQMTQSPSSLSASVGDRVTITCRASQSISSYLNWYQQKPGKAPKLLIYAASSLQSGVPSRFSGSGSGTDFTLTISSLQPEDAATYYCQQYDTFPLTFGGGTKVEIKRTVAAPSVFIFPPSDEQLKSGTASVVCLLNNFYPREAKVQWKVDNALQSGNSQESVTEQDSKDSTYSLSSTLTLSKADYEKHKVYACEVTHQGLSSPVTKSFNRGEC
Take B1: in series [1], the Kon was 72000 M⁻¹ s⁻¹ and the koff was 0.0044 s⁻¹. In addition, the “binding to BSA” value in series [2] is on record as “did not bind to BSA”.

B2: Fab 3G12: Anti-ENPP1 human Fab; light chain SEQ ID NO:288, heavy chain SEQ ID NO:287 (antibody)
heavy: QVQLVESGGGLVKPGGSLRLSCAASGFTFSDYYMSWIRQAPGKGLEWVSYISSSGSTIYYADSVKGRFTISRDNAKNSLYLQMNSLRAEDTAVYYCAREVYYYDSSGYYTYYFDYWGQGTLVTVSSASTKGPSVFPLAPSSKSTSGGTAALGCLVKDYFPEPVTVSWNSGALTSGVHTFPAVLQSSGLYSLSSVVTVPSSSLGTQTYICNVNHKPSNTKVDKKVEPKSCDKT
light: DIQMTQSPSSLSASVGDRVTITCRASQSISSYLNWYQQKPGKAPKLLIYAASSLQSGVPSRFSGSGSGTDFTLTISSLQPEDVAVYYCQQYYTSRITFGQGTKLEIKRTVAAPSVFIFPPSDEQLKSGTASVVCLLNNFYPREAKVQWKVDNALQSGNSQESVTEQDSKDSTYSLSSTLTLSKADYEKHKVYACEVTHQGLSSPVTKSFNRGEC
For the molecule B2, in series [1], the Kon was found to be 52000 M⁻¹ s⁻¹ and the koff was 0.0018 s⁻¹. Moreover, the “binding to BSA” value in series [2] is given as “did not bind to BSA”.

B3: IgG1 17: Fab 17 converted to bivalent antibody by fusion with human IgG1 Fc; HC SEQ ID NO:289, LC SEQ ID NO:286 (antibody)
heavy: QVQLVESGGGLVKPGGSLRLSCAASGFTFSDYYMSWIRQAPGKGLEWVSYISSSGSTIYYADSVKGRFTISRDNAKNSLYLQMNSLRAEDTAVYYCAREVYYYDSSGYYTYYFDYWGQGTLVTVSS[human IgG1 constant region not spelt out]
light: DIQMTQSPSSLSASVGDRVTITCRASQSISSYLNWYQQKPGKAPKLLIYAASSLQSGVPSRFSGSGSGTDFTLTISSLQPEDAATYYCQQYDTFPLTFGGGTKVEIKRTVAAPSVFIFPPSDEQLKSGTASVVCLLNNFYPREAKVQWKVDNALQSGNSQESVTEQDSKDSTYSLSSTLTLSKADYEKHKVYACEVTHQGLSSPVTKSFNRGEC
Take B3: the figures for the “cell surface binding of IgG1” value in series [3], in series [4] and in series [5] were 11%, “no binding effects” and “specific binding”, respectively. The internalization result in series [6] was “efficiently and highly internalized”. Besides, the “form / high molecular weight species measured by SEC” value in series [7] is “monomer and had no high molecular weight species”. Besides, in series [8], the ADCC activity entry is “no effects on inducing ADCC”.
